{
  "source": "patent US10988516B2",
  "about": "“Methods and compositions for treating inflammation” (UTI Limited Partnership, priority 2012, dated 2021)",
  "key": {"8.3-CD8+ T-cells": {"tested_on": "8.3-CD8+ T-cells", "conditions": "cultured in the presence of peptide for 28 days", "method": "A and B, Phenotype of 8.3-CD8+ T-cells 28 days after culture in the presence of peptide-pulsed (10 or 0.001 ug/ml) DCs. […] C, Intracellular IFNγ content in response to peptide challenge. […] D, Secretion of IFNγ by, and proliferation of memory-like 8.3-CD8+ T-cells (induced by BacIYL) in response to peptide challenge.\nBecause low-avidity autoreactive T-cells tend to differentiate into memory-like anergic (non-proliferating, but cytokine-secreting) autoregulatory (autoimmune disease-suppressing) T-cells in response to chronic autoantigenic stimulation, it was contemplated that Bac-IYL might be able to induce memory-like 8.3-CD8+ T-cells in vitro."}, "naive 8.3-CD8+ T-cells": {"tested_on": "naive 8.3-CD8+ T-cells", "conditions": "in the presence of LPS"}},
  "data": [
    {"sequence": "IYLKTNVYL (listed as Bacteroides sp.) [BacIYL]", "values": [
      {"measurement": "phenotype of 8.3-CD8+ T-cells (CD44, CD62L, CD69, CD122)", "setting": "8.3-CD8+ T-cells", "value": "expressed the late T-cell activation marker CD44 and low levels of the naive T-cell marker CD62L"},
      {"measurement": "IFNγ and proliferative responses of naive 8.3-CD8+ T-cells", "setting": "naive 8.3-CD8+ T-cells", "value": "efficient IFNγ and proliferative responses"}
    ]}
  ]
}
